Reference: publication PMC12781765, “Atypical GNAO1 variants in severe childhood speech disorders: clinical, genetic, and molecular insights” (Molecular Autism, 2025)

T1: GFP-RGS19 (UniProt P49795 1-217)
T1 construct: RGS19, regulator of G protein signaling 19; Plasmid published earlier; also called GFP-tagged RGS19 construct; source: HEK293T, transfected, in lysate
T1 sequence (looked up): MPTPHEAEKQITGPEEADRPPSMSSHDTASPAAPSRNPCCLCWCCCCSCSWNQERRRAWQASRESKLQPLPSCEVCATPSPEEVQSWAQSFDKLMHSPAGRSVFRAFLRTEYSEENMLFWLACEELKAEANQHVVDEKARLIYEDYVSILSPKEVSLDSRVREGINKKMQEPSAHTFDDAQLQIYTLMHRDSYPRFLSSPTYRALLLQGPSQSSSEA

B1: Gαo T327K (non-tagged) (natural protein)
chain: not shown
notes: Gαo (GNAO1) with the patient variant p.Thr327Lys (c.980C>A), introduced by site-directed mutagenesis into the non-tagged Gαo plasmid; De novo patient variant; also called p.Thr327Lys; source: HEK293T, transfected (in lysate for co-IP; in cells for BRET)
B2: Gαo T327R (non-tagged) (natural protein)
chain: not shown
notes: Gαo (GNAO1) with the patient variant p.Thr327Arg (c.980C>G), introduced by site-directed mutagenesis into the non-tagged Gαo plasmid; De novo patient variant reported earlier; also called p.Thr327Arg; source: HEK293T, transfected (in lysate for co-IP; in cells for BRET)

Biological target: T1, GFP-RGS19
Experiment: co-IP; HEK293T co-transfected with the GFP-tagged construct and non-tagged Gαo variants; IP of the GFP fusion with a recombinant GST-tagged nanobody against GFP; Western blot with antibodies against Gαo and GFP; blots quantified with ImageJ
Conditions: partners not purified

Row | Binder | percent of the binding of wild-type [%]
1 | B1 | ~60
2 | B2 | ~50
